The supplement of paper PMC9135407
Several values for one entry are separate records, joined by “and”; a condition that tells them apart may be missing. Equal entries are not always repeated. Structures can show the parent of a compound that is named as a salt. The whole screen tested about 5,800 compounds, of which about 620 (11%) showed activity.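 The calls were made as follows: active = score above a cut-off or among the top three wells of a plate; in these data no inactive exceeds 0.85.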 This is a selection; strong and weak results do not stand in their true shares.

Test system: primary human hepatic stellate cells (donor 1)
Assay: scaled lipid accumulation score (0 = DMSO-like, 1 = nortriptyline-like); higher = stronger HSC inactivation (lipid re-accumulation), active = hit call of the paper
Conditions: 48 h
Description: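 Primary lipid accumulation screen in primary human hepatic stellate cell myofibroblasts (donor 1, passage 8) in 384-well plates. 100 nL of library compound was pin-transferred into 30 µL medium in duplicate, and cells were treated for 48 h. The 'Scaled' score combines distance from plate baseline, toxicity and reproducibility penalties, and is normalised to nortriptyline (positive) and DMSO (negative) controls on each plate. A hit is defined as scaled >0.85 or among the top 3 wells per plate.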

[1] = library stock concentration: 3.33 mM
[2] = library stock concentration: 10 mM
[3] = library stock concentration: 1 mM
[4] = library stock concentration: 80 uM
[5] = library stock concentration: 400 uM
[6] = library stock concentration: 2 mM

SMILES: CCOC(=O)c1[nH]c2cc(Cl)ccc2c1C(C(=O)NC(C)(C)C)N(C=O)Cc1ccc(Cl)cc1 (stereo not given)
- scaled lipid accumulation score [1]: inactive: ≤ -0.009
- scaled lipid accumulation score [2]: inactive: 0.547

SMILES: CCCCN1CCCCC1C(=O)Nc1c(C)cccc1C (stereo not given) [Bupivacaine HCl]
- scaled lipid accumulation score [1]: inactive: ≤ 0
- scaled lipid accumulation score (library stock concentration: 6.9 mM): inactive: ≤ 0
- scaled lipid accumulation score [2]: inactive: ≤ 0

SMILES: CCCCN1CCCCC1C(=O)Nc1c(C)cccc1C (stereo not given) [Bupivacaine hydrochloride]
- scaled lipid accumulation score: inactive: ≤ 0
- scaled lipid accumulation score (library stock concentration: 6.2 mM): inactive: ≤ 0
- scaled lipid accumulation score [2]: inactive: ≤ -0.027

SMILES: CCOC(=O)c1ccc(N=Nc2ccc(O)c(CC(=O)O)c2)cc1
- scaled lipid accumulation score [3]: inactive: ≤ 0

SMILES: CCOC(=O)NNc1nncc2ccccc12 [Todralazine hydrochloride]
- scaled lipid accumulation score: inactive: 0.065
- scaled lipid accumulation score [2]: inactive: ≤ 0

SMILES: CCCCCCCCCCCCCCCCCCCCCCCCCCCCCCO [n-Triacontanol]
- scaled lipid accumulation score [3]: inactive: 0.026

SMILES: C=C1/C(=C\C=C2/CCC[C@]3(C)[C@@H]([C@H](C)/C=C/[C@H](C)C(C)C)CC[C@@H]23)C[C@@H](O)C[C@@H]1O [Doxercalciferol]
- scaled lipid accumulation score [1]: inactive: ≤ 0
- scaled lipid accumulation score [2]: inactive: ≤ 0

SMILES: CC[C@@H](C(=O)[C@@H](C)[C@@H](O)[C@H](C)CCc1ccc(C)c(O)c1C(=O)O)[C@H]1O[C@](CC)([C@H]2CC[C@](O)(CC)[C@H](C)O2)C[C@@H]1C [Lasalocid sodium]
- scaled lipid accumulation score [2]: inactive: 0.665

SMILES: CC[C@@H](C(=O)[C@@H](C)[C@@H](O)[C@H](C)CCc1ccc(C)c(O)c1C(=O)O)[C@H]1O[C@](CC)([C@H]2CC[C@](O)(CC)[C@H](C)O2)C[C@@H]1C [Lasalocid sodium salt]
- scaled lipid accumulation score: inactive: 0.439

SMILES: C[C@H]1O[C@@H](Oc2c(-c3cc(O)c(O)c(O)c3)oc3cc(O)cc(O)c3c2=O)[C@@H](O)[C@@H](O)[C@@H]1O [Myricitrin]
- scaled lipid accumulation score [1]: inactive: ≤ 0
- scaled lipid accumulation score [2]: inactive: 0.154

SMILES: O=C(O)CCC/C=C\C[C@@H]1[C@@H](/C=C/[C@@H](O)COc2cccc(Cl)c2)[C@H](O)C[C@@H]1O [(+)-Cloprostenol]
- scaled lipid accumulation score [3]: inactive: ≤ 0

SMILES: Cc1ccc2c(=O)c3cccc(CC(=O)O)c3oc2c1C [DMXAA (Vadimezan)]
- scaled lipid accumulation score [1]: inactive: ≤ 0
- scaled lipid accumulation score [2]: inactive: ≤ 0

SMILES: CC(C)(C)c1ccc(C(O)CCCN2CCC(C(O)(c3ccccc3)c3ccccc3)CC2)cc1 (stereo not given) [Terfenadine]
- scaled lipid accumulation score: inactive: 0.258
- scaled lipid accumulation score [2]: inactive: 0.153

SMILES: CC(COc1ccccc1)NC(C)C(O)c1ccc(O)cc1 (stereo not given) [Duvadilan]
- scaled lipid accumulation score [2]: inactive: 0.493

SMILES: CC(COc1ccccc1)NC(C)C(O)c1ccc(O)cc1 (stereo not given) [Isoxsuprine hydrochloride]
- scaled lipid accumulation score: inactive: 0.185
- scaled lipid accumulation score (library stock concentration: 5.9 mM): inactive: 0.106
- scaled lipid accumulation score [2]: inactive: 0.237

SMILES: C[C@@H]1CCNC(=O)c2cc3ccc(C(=O)Nc4nc5ccccc5n4CCCN(C)C)cc3n21
- scaled lipid accumulation score [4]: inactive: ≤ -0.001
- scaled lipid accumulation score [5]: inactive: ≤ -0.001
- scaled lipid accumulation score [6]: inactive: ≤ -0.001
- scaled lipid accumulation score [2]: inactive: 0.117

SMILES: Cc1nc(-c2ccc(OCC(C)C)c(C#N)c2)sc1C(=O)O [Febuxostat]
- scaled lipid accumulation score [4]: inactive: ≤ 0
- scaled lipid accumulation score [5]: inactive: ≤ 0
- scaled lipid accumulation score [6]: inactive: ≤ 0
- scaled lipid accumulation score [1]: inactive: 0.019
- scaled lipid accumulation score [2]: inactive: ≤ 0 and inactive: 0.033

SMILES: Cc1nc(-c2ccc(OCC(C)C)c(C#N)c2)sc1C(=O)O
- scaled lipid accumulation score [2]: inactive: ≤ 0

SMILES: COc1ccc(CC2c3cc(OC)c(OC)cc3CC[N+]2(C)CCC(=O)OCCCCCOC(=O)CC[N+]2(C)CCc3cc(OC)c(OC)cc3C2Cc2ccc(OC)c(OC)c2)cc1OC (stereo not given) [Atracurium Besylate]
- scaled lipid accumulation score [1]: inactive: ≤ 0
- scaled lipid accumulation score [2]: inactive: 0.109

SMILES: COc1ccc(CC2c3cc(OC)c(OC)cc3CC[N+]2(C)CCC(=O)OCCCCCOC(=O)CC[N+]2(C)CCc3cc(OC)c(OC)cc3C2Cc2ccc(OC)c(OC)c2)cc1OC (stereo not given) [Atracurium besylate]
- scaled lipid accumulation score: inactive: ≤ 0

SMILES: COc1ccc(CC2c3cc(OC)c(OC)cc3CC[N+]2(C)CCC(=O)OCCCCCOC(=O)CC[N+]2(C)CCc3cc(OC)c(OC)cc3C2Cc2ccc(OC)c(OC)c2)cc1OC (stereo not given)
- scaled lipid accumulation score [2]: inactive: ≤ 0

SMILES: CN(C)c1ccc(C(=C2C=CC(=[N+](C)C)C=C2)c2ccc(N(C)C)cc2)cc1 [Gentian violet]
- scaled lipid accumulation score (library stock concentration: 4.9 mM): inactive: 0.678
- scaled lipid accumulation score [2]: inactive: ≤ 0

SMILES: CN(C)c1ccc(C(=C2C=CC(=[N+](C)C)C=C2)c2ccc(N(C)C)cc2)cc1 [Crystal Violet]
- scaled lipid accumulation score [1]: inactive: ≤ 0
- scaled lipid accumulation score [2]: inactive: 0.611

SMILES: CC(C(=O)O)c1ccc2c(c1)CC(=O)c1ccccc1S2 (stereo not given) [Zaltoprofen]
- scaled lipid accumulation score [1]: inactive: ≤ 0
- scaled lipid accumulation score [2]: inactive: ≤ 0

SMILES: Oc1cc2c(cc1O)[C@@H]1c3ccc(O)c(O)c3OC[C@]1(O)C2 [Hematoxylin]
- scaled lipid accumulation score [1]: inactive: 0.024
- scaled lipid accumulation score [2]: inactive: ≤ 0

SMILES: CN[C@H]1CC[C@@H](c2ccc(Cl)c(Cl)c2)c2ccccc21 [Sertraline]
- scaled lipid accumulation score: active: 1.23

SMILES: Cc1nc(Nc2ncc(C(=O)Nc3c(C)cccc3Cl)s2)cc(N2CCN(CCO)CC2)n1 [Dasatinib]
- scaled lipid accumulation score [4]: inactive: ≤ 0
- scaled lipid accumulation score [5]: inactive: 0.238
- scaled lipid accumulation score [6]: inactive: 0.602
- scaled lipid accumulation score [1]: inactive: 0.43
- scaled lipid accumulation score [2]: inactive: 0.646 and inactive: 0.707

SMILES: Cc1nc(Nc2ncc(C(=O)Nc3c(C)cccc3Cl)s2)cc(N2CCN(CCO)CC2)n1
- scaled lipid accumulation score [5]: inactive: 0.775
- scaled lipid accumulation score [2]: inactive: 0.677

SMILES: CCN(CCO)CCCC(C)Nc1ccnc2cc(Cl)ccc12 (stereo not given) [Hydroxychloroquine sulfate]
- scaled lipid accumulation score [2]: inactive: 0.161

SMILES: CCOC(=O)c1c(CSc2ccccc2)n(C)c2cc(Br)c(O)c(CN(C)C)c12 [Arbidol HCl]
- scaled lipid accumulation score [1]: inactive: 0.128
- scaled lipid accumulation score [2]: inactive: 0.783

SMILES: CCN1CCN(Cc2ccc(-c3cc4c(N[C@H](C)c5ccccc5)ncnc4[nH]3)cc2)CC1
- scaled lipid accumulation score [1]: inactive: 0.668
- scaled lipid accumulation score [2]: inactive: 0.465

SMILES: CC(C)c1ccc2c(c1)c(SC(C)(C)C)c(CC(C)(C)C(=O)O)n2Cc1ccc(Cl)cc1
- scaled lipid accumulation score [2]: inactive: ≤ 0 and inactive: 0.009

SMILES: CC(C)c1ccc2c(c1)c(SC(C)(C)C)c(CC(C)(C)C(=O)O)n2Cc1ccc(Cl)cc1 [MK 886 (sodium salt)]
- scaled lipid accumulation score [3]: inactive: ≤ 0

SMILES: CC(C)CCOc1ccc(N)cc1 [CP 24,879 (hydrochloride)]
- scaled lipid accumulation score [3]: inactive: ≤ 0
